What all share (experiment): universal protein binding microarray (PBM)
Settings in all cases: transcription factors of Arabidopsis thaliana; high values mean tight binding; most listed sequences are background and not binding sites; double strand, one strand shown

Experiment [1] addresses T1, GST-ANAC092(1-176) (UniProt Q9FKA0).
T1 sequence: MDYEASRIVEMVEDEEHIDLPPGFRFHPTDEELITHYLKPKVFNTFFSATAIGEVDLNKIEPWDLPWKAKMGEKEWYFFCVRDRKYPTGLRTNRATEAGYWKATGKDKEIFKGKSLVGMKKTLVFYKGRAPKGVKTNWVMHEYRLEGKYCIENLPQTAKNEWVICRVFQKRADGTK

In experiment [2] the target is GST-NTL6(1-168) (UniProt Q9SCK6).
In experiment [3] the target is T2, GST-ANAC019 NAC domain (UniProt Q9C932).
T2 sequence: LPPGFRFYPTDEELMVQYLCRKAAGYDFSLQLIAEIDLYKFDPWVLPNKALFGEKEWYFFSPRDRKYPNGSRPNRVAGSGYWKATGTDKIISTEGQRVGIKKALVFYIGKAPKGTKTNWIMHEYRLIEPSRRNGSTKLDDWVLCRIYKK

The target in experiment [4] is T3, GST-ANAC055(1-171) (UniProt Q9LDY8).
T3 sequence: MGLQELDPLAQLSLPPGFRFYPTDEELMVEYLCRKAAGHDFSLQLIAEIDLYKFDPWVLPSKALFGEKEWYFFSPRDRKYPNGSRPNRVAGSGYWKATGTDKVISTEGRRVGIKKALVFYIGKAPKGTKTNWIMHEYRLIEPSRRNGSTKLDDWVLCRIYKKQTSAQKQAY

Experiment [5] has as its target T4, GST-ATAF1 NAC domain (UniProt Q39013).
T4 sequence: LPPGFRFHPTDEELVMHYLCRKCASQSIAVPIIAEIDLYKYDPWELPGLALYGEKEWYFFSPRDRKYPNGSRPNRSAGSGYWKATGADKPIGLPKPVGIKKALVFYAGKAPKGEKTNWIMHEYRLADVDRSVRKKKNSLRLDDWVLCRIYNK

The target of experiment [6] is T5, GST-ANAC092(1-285) full length (UniProt Q9FKA0).
T5 sequence: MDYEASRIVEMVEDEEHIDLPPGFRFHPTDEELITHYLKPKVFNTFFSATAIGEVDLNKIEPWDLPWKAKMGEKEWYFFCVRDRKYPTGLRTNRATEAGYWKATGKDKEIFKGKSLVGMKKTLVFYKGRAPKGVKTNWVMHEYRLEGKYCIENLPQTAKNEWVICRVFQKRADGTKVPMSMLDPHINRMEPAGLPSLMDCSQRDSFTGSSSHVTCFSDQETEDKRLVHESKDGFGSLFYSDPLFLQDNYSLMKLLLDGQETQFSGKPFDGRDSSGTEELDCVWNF

Experiment [7] deals with T6, GST-NAP(1-166) (UniProt O49255).
T6 sequence: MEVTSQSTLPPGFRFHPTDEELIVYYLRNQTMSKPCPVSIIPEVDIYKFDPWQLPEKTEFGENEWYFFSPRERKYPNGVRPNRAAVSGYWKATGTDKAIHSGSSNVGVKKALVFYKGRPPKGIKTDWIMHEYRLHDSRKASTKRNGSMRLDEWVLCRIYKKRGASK

In experiment [8] the target is T7, GST-NST2(1-184) (UniProt Q9M274).
T7 sequence: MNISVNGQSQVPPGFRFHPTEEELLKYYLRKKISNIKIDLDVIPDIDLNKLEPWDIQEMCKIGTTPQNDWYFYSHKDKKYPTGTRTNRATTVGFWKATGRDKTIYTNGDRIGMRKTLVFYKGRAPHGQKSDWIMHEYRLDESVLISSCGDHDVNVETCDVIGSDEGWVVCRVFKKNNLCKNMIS

The target in experiment [9] is T8, GST-NTL8 NAC domain (UniProt Q9XIN7).
T8 sequence: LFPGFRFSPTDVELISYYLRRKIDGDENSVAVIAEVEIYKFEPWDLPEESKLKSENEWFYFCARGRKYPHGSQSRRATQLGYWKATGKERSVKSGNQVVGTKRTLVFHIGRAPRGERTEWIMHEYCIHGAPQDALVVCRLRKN

Experiment [10] addresses T9, GST-SND1(1-203) (UniProt Q9LPI7).
T9 sequence: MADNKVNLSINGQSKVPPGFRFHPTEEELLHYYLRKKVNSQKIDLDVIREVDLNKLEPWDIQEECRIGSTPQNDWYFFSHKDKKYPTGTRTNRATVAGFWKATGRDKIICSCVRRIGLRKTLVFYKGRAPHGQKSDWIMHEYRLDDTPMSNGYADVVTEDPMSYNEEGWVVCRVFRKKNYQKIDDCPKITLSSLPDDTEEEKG

The target in experiment [11] is T10, GST-VND3 NAC domain (UniProt Q9FH59).
T10 sequence: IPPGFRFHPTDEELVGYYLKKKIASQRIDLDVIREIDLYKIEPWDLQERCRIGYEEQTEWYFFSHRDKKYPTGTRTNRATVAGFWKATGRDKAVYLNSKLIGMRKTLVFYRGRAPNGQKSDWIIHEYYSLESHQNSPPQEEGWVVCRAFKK

The target in experiment [12] is T11, GST-VND7 NAC domain (UniProt Q9C8W9).
T11 sequence: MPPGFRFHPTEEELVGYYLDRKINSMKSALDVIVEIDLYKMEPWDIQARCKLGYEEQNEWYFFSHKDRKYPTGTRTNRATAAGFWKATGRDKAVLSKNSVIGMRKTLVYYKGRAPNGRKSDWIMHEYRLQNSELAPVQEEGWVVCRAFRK

Experiment [13] has as its target T12, GST-VOZ2 (Arabidopsis thaliana) (UniProt Q9SLB9).
T12 sequence: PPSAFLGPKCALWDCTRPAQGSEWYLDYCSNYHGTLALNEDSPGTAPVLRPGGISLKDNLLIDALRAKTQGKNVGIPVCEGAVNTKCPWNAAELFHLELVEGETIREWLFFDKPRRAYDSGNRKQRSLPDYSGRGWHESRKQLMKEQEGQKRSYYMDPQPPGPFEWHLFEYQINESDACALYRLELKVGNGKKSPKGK

In paper PMC4081100 one finds binding signal data, which are given here for 9 sequences.

The entries are a selection whose mix differs from that of the whole data set. For part of these data: At the low end of the ranking, values are background and their order means little. This is one part of the list. For part of these data: The source does not settle which construct or isoform was used.

UniProt Q9SCK6, sequence (Q9SCK6 1-168): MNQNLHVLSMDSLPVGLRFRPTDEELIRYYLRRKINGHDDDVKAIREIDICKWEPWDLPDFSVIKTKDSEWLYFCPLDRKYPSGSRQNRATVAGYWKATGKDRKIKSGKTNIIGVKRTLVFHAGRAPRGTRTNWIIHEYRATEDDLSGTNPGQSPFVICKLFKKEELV

On to ACCAGTCA, for which the binding signal in experiment [1] is -0.00282 E-score; in experiment [2], -0.0586 E-score; in experiment [3], -0.127 E-score; in experiment [4], -0.0788 E-score; in experiment [5], -0.0635 E-score; in experiment [6] it was -0.14 E-score. For the same sequence, the binding signal in [7] is -0.0326 E-score; in [8] it was -0.132 E-score; in experiment [9] it was -0.136 E-score; in experiment [10], -0.0731 E-score; in experiment [11], -0.142 E-score; in experiment [12], -0.139 E-score. The binding signal in experiment [13] is -0.0823 E-score.
As to AGAGGTCA, the binding signal in experiment [1] is -0.0759 E-score; in experiment [2] it was -0.044 E-score; in experiment [3] it was -0.0933 E-score; in [4], -0.00514 E-score; in experiment [5], -0.122 E-score; in experiment [6], -0.0551 E-score. Moreover, the binding signal was -0.0415 E-score in [7]; -0.0796 E-score in experiment [8]; -0.00114 E-score in experiment [9]; -0.133 E-score in experiment [10]; -0.108 E-score in [11]; -0.0424 E-score in experiment [12]. For the same sequence, in experiment [13], the binding signal is -0.0742 E-score.
On to CGATTGAC, for which the binding signal in experiment [1] is -0.0222 E-score; in experiment [2], -0.00936 E-score; in [3], -0.0554 E-score; in [4] it was -0.0646 E-score; in experiment [5], -0.0509 E-score; in experiment [6], -0.0136 E-score. The binding signal in [7] is -0.00541 E-score; in experiment [8], -0.0299 E-score; in [9] it was -0.0778 E-score; in experiment [10] it was -0.0246 E-score; in [11], -0.118 E-score; in experiment [12] it was -0.0755 E-score. The binding signal in experiment [13] was -0.0683 E-score.
For CCGGTCAA, the binding signal in experiment [1] is -0.0225 E-score; in experiment [2], -0.0372 E-score; in experiment [3] it was 0.0195 E-score; in experiment [4], -0.139 E-score; in experiment [5] it was -0.0856 E-score; in [6], -0.132 E-score. In addition, the binding signal in experiment [7] was -0.0504 E-score; in experiment [8], -0.0238 E-score; in experiment [9] it was 0.00981 E-score; in experiment [10], -0.024 E-score; in experiment [11] it was -0.188 E-score; in experiment [12], -0.032 E-score. In experiment [13], the binding signal was -0.0138 E-score.
For the sequence GTCAGACA, the binding signal was -0.0424 E-score in experiment [1]; -0.138 E-score in experiment [2]; -0.0509 E-score in experiment [3]; -0.0161 E-score in experiment [4]; 0.00933 E-score in [5]; -0.0124 E-score in experiment [6]. The binding signal in [7] was 0.0483 E-score; in experiment [8], -0.119 E-score; in [9], -0.13 E-score; in [10], -0.148 E-score; in experiment [11] it was -0.0218 E-score; in experiment [12], -0.137 E-score. For the same sequence, in [13], the binding signal was -0.189 E-score.
Consider CTGACCTA, for which the binding signal was -0.072 E-score in [1]; -0.0307 E-score in experiment [2]; -0.0118 E-score in [3]; -0.139 E-score in experiment [4]; -0.0205 E-score in [5]; -0.0857 E-score in experiment [6]. The binding signal in experiment [7] was -0.0512 E-score; in [8], -0.0846 E-score; in experiment [9], 0.0298 E-score; in experiment [10], -0.125 E-score; in experiment [11], -0.0943 E-score; in [12], -0.0685 E-score. The binding signal in [13] was -0.0508 E-score.
Take CGGAGTCA: the binding signal in [1] is -0.0437 E-score; in experiment [2], -0.0351 E-score; in experiment [3], -0.00177 E-score; in experiment [4], -0.00443 E-score; in experiment [5], -0.174 E-score; in experiment [6] it was -0.166 E-score. In addition, the binding signal in experiment [7] is -0.133 E-score; in experiment [8], 0.027 E-score; in experiment [9], -0.056 E-score; in experiment [10], -0.00842 E-score; in experiment [11] it was -0.068 E-score; in experiment [12] it was -0.153 E-score. Moreover, in [13], the binding signal is -0.0476 E-score.
As to CTGACCGC, the binding signal was 0.0725 E-score in [1]; -0.0105 E-score in experiment [2]; -0.0156 E-score in experiment [3]; -0.105 E-score in experiment [4]; -0.132 E-score in experiment [5]; -0.159 E-score in experiment [6]. The binding signal is -0.0351 E-score in experiment [7]; -0.00185 E-score in [8]; 0.0212 E-score in experiment [9]; -0.0625 E-score in experiment [10]; -0.0998 E-score in [11]; -0.0223 E-score in experiment [12]. Moreover, in [13], the binding signal amounted to 0.12 E-score.
GAGTCAGC: the binding signal in experiment [1] is -0.0908 E-score; in [2], -0.0361 E-score; in experiment [3], -0.156 E-score; in experiment [4], -0.0596 E-score; in experiment [5] it was -0.0815 E-score; in [6], -0.0741 E-score. The binding signal in experiment [7] was -0.0573 E-score; in [8], -0.0516 E-score; in experiment [9], 0.00799 E-score; in [10] it was -0.0307 E-score; in [11], -0.0667 E-score; in [12], -0.0317 E-score. Also, the binding signal in [13] is -0.101 E-score.
